Assay results: paper PMC8408167
No constants are given. Whether binding was seen depends on the method and setting. Binding seen in cells or lysates may run through a third protein. Some results given as binding are weak or reduced against the parent protein; the word gives no strength.

The chains behind the UniProt entries cited, without tags or fusion partners. Where a name states a change or a piece, a line headed by the entry shows the natural chain unless it says otherwise.
UniProt P20152: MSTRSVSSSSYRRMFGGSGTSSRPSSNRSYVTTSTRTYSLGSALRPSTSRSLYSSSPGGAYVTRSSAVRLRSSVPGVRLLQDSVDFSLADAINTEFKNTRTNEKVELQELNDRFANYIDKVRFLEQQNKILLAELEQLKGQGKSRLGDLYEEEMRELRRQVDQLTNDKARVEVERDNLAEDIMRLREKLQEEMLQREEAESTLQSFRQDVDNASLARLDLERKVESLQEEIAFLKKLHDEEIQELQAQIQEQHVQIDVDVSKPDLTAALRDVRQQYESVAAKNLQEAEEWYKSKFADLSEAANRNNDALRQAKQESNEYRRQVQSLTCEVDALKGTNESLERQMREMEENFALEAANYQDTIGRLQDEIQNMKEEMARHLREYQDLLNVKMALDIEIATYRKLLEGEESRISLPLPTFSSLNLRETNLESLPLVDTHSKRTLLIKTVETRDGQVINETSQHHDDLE
UniProt P53350: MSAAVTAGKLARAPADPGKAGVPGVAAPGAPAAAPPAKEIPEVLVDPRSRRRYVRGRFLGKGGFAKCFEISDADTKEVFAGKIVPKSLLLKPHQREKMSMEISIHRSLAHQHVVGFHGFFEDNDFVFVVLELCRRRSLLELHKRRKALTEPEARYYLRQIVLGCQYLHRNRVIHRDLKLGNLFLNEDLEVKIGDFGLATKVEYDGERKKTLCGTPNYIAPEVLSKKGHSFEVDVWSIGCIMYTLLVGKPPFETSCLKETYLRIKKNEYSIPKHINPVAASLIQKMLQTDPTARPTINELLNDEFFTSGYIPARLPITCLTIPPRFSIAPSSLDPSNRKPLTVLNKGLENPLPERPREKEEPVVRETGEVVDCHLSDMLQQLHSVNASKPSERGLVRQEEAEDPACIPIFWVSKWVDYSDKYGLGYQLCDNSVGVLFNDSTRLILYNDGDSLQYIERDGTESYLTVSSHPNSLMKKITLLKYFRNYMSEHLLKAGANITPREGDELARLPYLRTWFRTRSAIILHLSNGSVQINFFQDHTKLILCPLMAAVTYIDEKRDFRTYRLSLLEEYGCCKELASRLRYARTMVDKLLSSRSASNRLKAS
UniProt Q15796: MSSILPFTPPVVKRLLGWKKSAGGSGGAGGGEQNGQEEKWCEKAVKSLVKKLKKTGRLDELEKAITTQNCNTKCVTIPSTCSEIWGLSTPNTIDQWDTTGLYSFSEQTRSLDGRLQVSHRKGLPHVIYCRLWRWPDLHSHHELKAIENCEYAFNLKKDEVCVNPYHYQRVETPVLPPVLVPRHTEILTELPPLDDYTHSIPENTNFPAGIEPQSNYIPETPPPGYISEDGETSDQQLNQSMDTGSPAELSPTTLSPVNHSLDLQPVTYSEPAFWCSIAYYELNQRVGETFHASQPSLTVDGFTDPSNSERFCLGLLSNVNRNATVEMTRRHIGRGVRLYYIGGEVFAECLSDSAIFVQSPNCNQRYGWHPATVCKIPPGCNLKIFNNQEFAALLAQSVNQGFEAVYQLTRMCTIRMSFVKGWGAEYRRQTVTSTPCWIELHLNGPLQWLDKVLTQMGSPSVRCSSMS
UniProt P08670: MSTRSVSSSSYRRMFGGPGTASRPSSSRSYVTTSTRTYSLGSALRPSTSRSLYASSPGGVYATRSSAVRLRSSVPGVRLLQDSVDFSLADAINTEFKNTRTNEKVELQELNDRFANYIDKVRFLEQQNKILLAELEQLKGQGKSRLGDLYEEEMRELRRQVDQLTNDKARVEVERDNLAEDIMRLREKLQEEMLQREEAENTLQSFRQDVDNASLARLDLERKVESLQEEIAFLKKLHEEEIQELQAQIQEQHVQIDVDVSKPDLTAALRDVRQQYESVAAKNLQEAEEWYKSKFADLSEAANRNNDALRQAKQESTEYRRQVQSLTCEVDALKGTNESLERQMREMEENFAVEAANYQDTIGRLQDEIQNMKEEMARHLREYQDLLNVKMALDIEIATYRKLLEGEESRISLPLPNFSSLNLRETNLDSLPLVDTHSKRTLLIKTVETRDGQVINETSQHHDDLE

Key:
[1] = molecular target: RFP-tagged mouse vimentin S339A (non-phosphomimetic) (mouse) (UniProt P20152); experiment: co-IP; nuclear lysates of NCI-H460 cells; anti-vimentin or normal IgG for the precipitation; blots with anti-RFP, anti-p-Smad2, anti-Smad2/3, anti-histone H1
[2] = molecular target: RFP-tagged mouse vimentin S339E (phosphomimetic) (mouse) (UniProt P20152); experiment: as above
[3] = molecular target: RFP-tagged mouse vimentin S339E (phosphomimetic) (mouse) (UniProt P20152); experiment: co-IP; whole-cell lysates of NCI-H460 cells expressing vimentin (Supplementary Fig. 7a)
[4] = molecular target: PLK1 (endogenous) (human (endogenous in A549 and NCI-H460)) (UniProt P53350); experiment: co-IP; lysates of A549 and NCI-H460 cells, with or without 2.5 ng/ml TGF-β for 48 hours; anti-PLK1 or normal IgG for 16 h at 4 °C, protein A/G agarose, four washes with lysis buffer; blot with anti-vimentin

binding [1] | binding [2] | binding [3] | binding [4] | Substance
no binding | binds | binds | – | p-Smad2 (endogenous Smad2 phosphorylated at S465/S467) (from UniProt Q15796 1-467)
– | binds | binds | – | Smad2/3 (endogenous) (from UniProt Q15796 1-467; P84022 1-425) (complex)
– | – | – | binds | vimentin (endogenous) (from UniProt P08670 1-466)
